Laboratory results from PubChem BioAssay AID588342 (National Center for Advancing Translational Sciences (NCATS), 2011).
The whole screen tested about 360,000 compounds, of which about 25,000 (6.9%) were called active. The inconclusive results got no clear call from the source; some entries with a clear call stand among them for comparison. Calls follow the shape of the dose curve; as a rule, active = well fitted inhibition curve with a large enough effect; inconclusive = small, poorly fitted or top-dose-only effect; inactive = flat fitted curve, though single readings scatter. Potencies of inconclusive entries are doubtful fits and often do not repeat.

target: Luciferin 4-monooxygenase (Photinus pyralis) (UniProt P08659); experiment: qHTS profiling assay for firefly luciferase inhibitor/activator using purifed enzyme and Km concentrations of substrates (counterscreen for miR-21 project); conditions: purified FLuc, luminescence inhibition; series mostly up to 57.5 µM; also: nearly all actives have a fitted effect of over 55% in size
UniProt P08659, sequence (P08659 whole entry, looked up): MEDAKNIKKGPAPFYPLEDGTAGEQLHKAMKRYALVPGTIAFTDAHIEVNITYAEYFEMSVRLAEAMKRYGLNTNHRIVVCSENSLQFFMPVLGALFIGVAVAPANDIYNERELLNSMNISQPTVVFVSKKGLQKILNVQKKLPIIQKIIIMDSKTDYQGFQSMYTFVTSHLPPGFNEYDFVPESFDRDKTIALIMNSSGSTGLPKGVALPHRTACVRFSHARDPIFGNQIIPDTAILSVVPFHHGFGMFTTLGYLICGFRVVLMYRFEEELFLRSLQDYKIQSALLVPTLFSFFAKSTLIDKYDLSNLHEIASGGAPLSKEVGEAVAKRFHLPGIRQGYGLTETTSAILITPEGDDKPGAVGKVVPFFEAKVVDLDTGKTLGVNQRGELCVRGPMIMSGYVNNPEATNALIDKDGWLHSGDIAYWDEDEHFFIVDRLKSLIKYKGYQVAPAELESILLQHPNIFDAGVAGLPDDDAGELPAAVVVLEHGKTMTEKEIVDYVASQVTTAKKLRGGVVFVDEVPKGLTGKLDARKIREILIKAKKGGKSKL
In short: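 Purified P. pyralis luciferase, 10 nM final, with Km-level 10 uM D-luciferin and 10 uM ATP in 50 mM Tris acetate pH 7.5, 10 mM Mg acetate, 0.01% Tween-20, 0.05% BSA; 6-point qHTS titration about 60 µM downward; luminescence read.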
Potency is read from the fitted curve at half-maximal effect; tags tell the direction and shape of the fitted curve.

| SMILES | Potency |
| --- | --- |
| COC(=O)CC(NS(=O)(=O)c1cccs1)c1ccccc1Cl (stereo not drawn) | inactive |
| Cc1cc(C)c(O)c(-c2cc(C(=O)NCCc3ccc(S(N)(=O)=O)cc3)[nH]n2)c1 | inconclusive: 21.3 µM [inhibitor, single point] |
| CCOc1cc(C(=S)N2CCOCC2)ccc1O | inactive |
| CC1(C)Cc2c(sc3ncn4c(=S)[nH]nc4c23)CO1 | inconclusive: 16.9 µM [inhibitor, partial curve] |
| O=C(CSc1nnc(-c2ccc(O)cc2)o1)N1CCOCC1 | inconclusive: 30.1 µM [inhibitor, partial curve, poor fit] |
| COc1cccc(CNC(=O)CN2CCC(c3nc4ccc(C)cc4[nH]3)CC2)c1 | inconclusive: 23.9 µM [inhibitor, partial curve, poor fit] |
| CC(C)n1c(=O)[nH][nH]c1=S | inconclusive: 37.9 µM [inhibitor, single point] |
| CC(=O)Oc1ccc(N2C(=O)C3C(C2=O)C2(C)C=CC3(C)O2)cc1 (stereo not drawn) | inconclusive: 10.7 µM [inhibitor, partial curve] |
| Brc1ccc(/C=N/c2nc3ccccc3n2CCN2CCOCC2)cc1 | active: 23.9 µM |
| Cc1ccc(OCc2nc(-c3ccccc3)no2)c(C)c1 | active: 3.01 µM |
| O=C(COc1ccc(Br)cc1)Nc1nc(-c2cccnc2)cs1 | inconclusive: 10.7 µM [inhibitor, partial curve] |
| O=C(NCc1cccs1)C1CC(c2ccc(Cl)cc2)=NO1 (stereo not drawn) | inconclusive: 9.53 µM [inhibitor, partial curve, poor fit] |
| CCc1ccc2c(c1)c1nc(C)sc1n2CC(=O)OC | active: 12 µM |
| COc1ccc(CCn2c3c(c(=O)[nH]c2=O)C(NC(=O)c2ccc(Cl)cc2)(C(F)(F)F)C(=O)N3)cc1OC (stereo not drawn) | inconclusive: 21.3 µM [inhibitor, partial curve, poor fit] |
| COCCn1c(C)cc(C(=O)COC(=O)c2ccccc2Br)c1C | active: 0.0953 µM |
| CC(=O)c1ccc(NC(=O)COC(=O)c2ccc(F)cc2F)cc1 | inconclusive: 23.9 µM [inhibitor, partial curve] |
| COc1ccc(-c2cc(C(=O)Nc3cc(S(=O)(=O)N4CCOCC4)ccc3N3CCOCC3)c3ccccc3n2)cc1 | inconclusive: 26.9 µM [inhibitor, single point] |
| O=C(CSc1nc(-c2ccccc2)nn1C(=O)c1ccccc1)Nc1cccc([N+](=O)[O-])c1 | inconclusive: 23.9 µM [inhibitor, partial curve] |
| O=C(Nc1ccc(Cc2ccncc2)cc1)c1ccc([N+](=O)[O-])o1 | inconclusive: 30.1 µM [inhibitor, partial curve, poor fit] |
| CCOc1ccc(/C=C2\CCC(C3CCCC3)C2=O)cc1OC (stereo not drawn) | inconclusive: 10.7 µM [inhibitor, partial curve] |
| Cn1c(N)c(C(=O)COC(=O)COc2ccc3ccccc3c2)c(=O)n(C)c1=O | inconclusive: 37.9 µM [inhibitor, partial curve, poor fit] |
| O=C(NC(=S)Nc1ccc2nc[nH]c2c1)c1ccccc1 | inconclusive: 21.3 µM [inhibitor, partial curve] |
| CCN(CC)C(=O)CN1CCC(c2nc3cc(C)c(C)cc3[nH]2)CC1 | inactive |

| SMILES | Potency |
| --- | --- |
| CC(C)(C)c1ccc(C(=O)N/C(=C\c2ccco2)C(=O)Nc2ccccc2C(=O)O)cc1 | inconclusive: 30.1 µM [inhibitor, single point] |
| Cc1ccc(C(=O)NCC(=O)Nc2ccc(C)c(S(=O)(=O)Nc3ccc(Cl)cc3)c2)s1 | inconclusive: 37.9 µM [inhibitor, single point] |
| O=C(N/N=C/c1cccc(Cl)c1)c1c(O)c2c([nH]c1=O)CCCC2 | inconclusive: 5.36 µM [inhibitor, partial curve, poor fit] |
| COc1ccccc1N(CC(=O)N1CCN(c2ccccc2)CC1)S(=O)(=O)c1ccc(C)cc1 | inactive |
| Cc1cccc(NC(=O)/C(C#N)=C/c2ccc(Sc3ccccc3)o2)c1C | inactive |
| Cc1ccc2nc3c(nc2c1C)CCCC3 | inconclusive: 26.9 µM [inhibitor, partial curve, poor fit] |
| Oc1ccc(O)c(Cc2nc3ccccc3[nH]2)c1 | inconclusive: 21.3 µM [inhibitor, partial curve, poor fit] |
| COc1cccc2cc(/C(C)=N/NC(=O)c3ccco3)oc12 | inconclusive: 19 µM [inhibitor, single point] |
| Cc1ccc(NC(=O)c2ccc(F)cc2)cc1S(=O)(=O)N1CCCCCC1 | inconclusive: 26.9 µM [inhibitor, partial curve, poor fit] |
| COC(=O)c1c[nH]n2c(=O)c(Cl)c(C)nc12 | inconclusive: 37.9 µM [inhibitor, single point] |
| CS(=O)(=O)c1ccc(C(=O)NCCN2C(=O)S/C(=C\c3cccnc3)C2=O)cc1[N+](=O)[O-] | inconclusive: 26.9 µM [inhibitor, partial curve, poor fit] |
| Cc1ccc(Nc2c(-c3c[nH]c4ccccc34)nc3ccccn23)cc1 | inconclusive: 21.3 µM [inhibitor, partial curve, poor fit] |
| COc1ccc([N+](=O)[O-])cc1NC(=S)NC(NC(=O)C(c1ccccc1)c1ccccc1)C(Cl)(Cl)Cl (stereo not drawn) | inactive |
| CC(C)Oc1ccccc1-c1nc(SCC(=O)c2ccc(F)cc2)n[nH]1 | inactive |
| O=C1Nc2ccccc2S/C1=C/NCc1ccccc1Cl | active: 19 µM |
| Cc1cc(Cl)ccc1N=c1ssnc1Cl | inconclusive: 10.7 µM [inhibitor, partial curve, poor fit] |
| CC(OC(=O)/C=C/c1ccc2ccccc2n1)C(=O)NCc1ccccc1 (stereo not drawn) | active: 9.53 µM |
| Cc1csc(NC(=O)Cc2ccc(Br)cc2)n1 | inconclusive: 33.8 µM [inhibitor, partial curve, poor fit] |
| CCc1ccccc1NC(=O)CSc1nncn2c1cc1oc(C)cc12 | inactive |
| O=C(COC(=O)c1c2c(nc3ccccc13)CCN(Cc1ccccc1)C2)Nc1c(F)cccc1F | inconclusive: 21.3 µM [inhibitor, partial curve, poor fit] |
| CC(=O)NC(Cc1ccccc1)c1ccc2c(c1)OCCCO2 (stereo not drawn) | inconclusive: 30.1 µM [inhibitor, single point] |
| COc1ccc(CN2C(=O)C(NC(=O)c3cccc(C)c3)(C(F)(F)F)N=C2c2ccccc2)cc1 (stereo not drawn) | inactive |
| Cc1ccc(/C(N)=N/OC(=O)c2ccc3c(c2)OCO3)cc1 | active: 2.13 µM |

| SMILES | Potency |
| --- | --- |
| O=C(Nc1scc(-c2ccccc2)c1C(=O)O)c1ccccc1Cl | inconclusive: 30.1 µM [inhibitor, single point] |
| NC(=O)CN1C(=O)C(O)(CC(=O)/C=C\c2ccc3c(c2)OCO3)c2ccccc21 (stereo not drawn) | inconclusive: 37.9 µM [inhibitor, partial curve, poor fit] |
| COc1cccc(NS(=O)(=O)c2ccc3c(c2)n(C)c(=O)n3C)c1 | inactive |
| Cc1cccc(NC(=O)Nc2ccc(Cl)c(Cl)c2)n1 | active: 2.39 µM |
| CCN(Cc1ccccc1)S(=O)(=O)c1ccc(S(=O)(=O)N(Cc2ccccn2)Cc2ccco2)cc1 | inactive |
| Cn1nc(-c2ccccc2)c(C(=O)Nc2ccc(Cl)cc2)c1Cl | inactive |
| Cc1ccc(Cn2c(SCc3ccc(C(=O)NC4CCCCC4)cc3)nc3ccncc32)cc1 | inconclusive: 10.7 µM [inhibitor, partial curve, poor fit] |
| COc1ccc(-c2cc(C(=O)NCCCN3CCOCC3)no2)cc1 | inconclusive: 26.9 µM [inhibitor, partial curve, poor fit] |
| O=S(=O)(Nc1ccc(-c2cn3ccsc3n2)cc1)c1ccc2c(c1)OCCO2 | inconclusive: 19 µM [inhibitor, partial curve] |
| Cc1cc(NC(=O)c2ccccc2)c(Cl)cc1N | inconclusive: 21.3 µM [inhibitor, partial curve, poor fit] |
| COc1ccc(Cl)c2sc(NC(=O)c3ccc(S(=O)(=O)N4CCOCC4)cc3)nc12 | inconclusive: 15.1 µM [inhibitor, partial curve] |
| CC1CCC(NC(=O)c2cccc(S(=O)(=O)N3CCN(c4ccc(F)cc4)CC3)c2)CC1 (stereo not drawn) | inconclusive: 37.9 µM [inhibitor, partial curve, poor fit] |
| C/C(=N/OC(=O)C1CC1)c1cc(-c2ccc(Cl)cc2)no1 | active: 5.36 µM |
| O=C(Nc1nnc(SCc2ccccc2)s1)c1cccs1 | inconclusive: 23.9 µM [inhibitor, single point] |
| CCn1c(SCC(=O)N/N=C/c2ccc(C)o2)nnc1-c1ccc(C)cc1 | inconclusive: 21.3 µM [inhibitor, partial curve, poor fit] |
| O=C(O)c1ccc(Cl)c(S(=O)(=O)Nc2cccc(C(=O)Nc3cccc(C(F)(F)F)c3)c2)c1 | active: 15.1 µM |
| Cc1nn2c(-c3ccc(F)cc3)ccnc2c1Br | inactive |
| O=[N+]([O-])c1ccc(-c2nnc(-c3ccccc3)c(NCCCO)n2)cc1 | inconclusive: 6.75 µM [inhibitor, single point] |
| CC(C)CNC(=O)C1CCCN(C(=O)NCc2ccccc2)C1 (stereo not drawn) | inactive |
| O=C(NCCc1ccc(Cl)cc1)c1ccc(Br)s1 | inconclusive: 5.36 µM [inhibitor, partial curve] |
| Cc1c(C(=O)N(Cc2ccccc2F)C2CCS(=O)(=O)C2)oc2ccccc12 (stereo not drawn) | inactive |
| CCOc1cc(/C=N/NC(=O)c2ccccc2OCc2ccc(F)cc2)ccc1O | inconclusive: 21.3 µM [inhibitor, single point] |
